Data on 89 compounds can be found in publication PMC4336329 (PLoS ONE, 2015).

Hit rate of the full screen: of about 310,000 compounds, about 2,200 (0.71%) showed an effect of 50% or more. Effects have a minus sign here. This is one part of the list.

In this assay the target is human ether-à-go-go-related gene (hERG) potassium channel (human, UniProt Q12809). The assay can be described thus: primary screen, population patch clamp on CHO cells stably expressing hERG.
Chain of human ether-à-go-go-related gene (hERG) potassium channel (Q12809 whole entry, looked up): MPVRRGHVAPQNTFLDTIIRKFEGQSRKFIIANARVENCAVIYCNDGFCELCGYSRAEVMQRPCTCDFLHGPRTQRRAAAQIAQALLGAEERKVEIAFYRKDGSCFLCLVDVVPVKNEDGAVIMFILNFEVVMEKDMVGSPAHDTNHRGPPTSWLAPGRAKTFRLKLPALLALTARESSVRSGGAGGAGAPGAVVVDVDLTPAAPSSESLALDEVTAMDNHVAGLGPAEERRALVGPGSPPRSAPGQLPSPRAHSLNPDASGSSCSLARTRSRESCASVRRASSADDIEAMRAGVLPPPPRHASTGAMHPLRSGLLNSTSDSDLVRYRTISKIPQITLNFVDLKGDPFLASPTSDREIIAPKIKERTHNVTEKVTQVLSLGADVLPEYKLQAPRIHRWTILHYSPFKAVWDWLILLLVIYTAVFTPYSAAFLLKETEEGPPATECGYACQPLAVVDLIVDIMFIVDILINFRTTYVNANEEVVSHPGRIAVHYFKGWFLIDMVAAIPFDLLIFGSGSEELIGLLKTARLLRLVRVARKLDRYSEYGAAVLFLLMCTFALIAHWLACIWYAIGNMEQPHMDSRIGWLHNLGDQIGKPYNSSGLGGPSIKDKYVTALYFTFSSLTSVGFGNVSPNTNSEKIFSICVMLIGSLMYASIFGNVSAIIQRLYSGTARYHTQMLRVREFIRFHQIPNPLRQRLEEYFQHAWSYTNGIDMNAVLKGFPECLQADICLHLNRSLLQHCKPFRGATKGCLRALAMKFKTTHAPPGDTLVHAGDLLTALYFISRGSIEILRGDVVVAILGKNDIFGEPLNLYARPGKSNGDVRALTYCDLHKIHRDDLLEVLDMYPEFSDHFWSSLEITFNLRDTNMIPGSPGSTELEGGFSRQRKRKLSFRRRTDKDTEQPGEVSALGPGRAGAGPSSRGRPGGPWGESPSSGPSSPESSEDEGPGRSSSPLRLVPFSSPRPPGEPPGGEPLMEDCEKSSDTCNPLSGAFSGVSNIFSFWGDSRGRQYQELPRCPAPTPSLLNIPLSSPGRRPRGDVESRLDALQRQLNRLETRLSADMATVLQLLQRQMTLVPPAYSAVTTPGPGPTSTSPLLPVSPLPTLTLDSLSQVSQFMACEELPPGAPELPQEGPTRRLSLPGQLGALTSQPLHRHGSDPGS
For the compound `CCN1CCN(c2ccc(S(=O)(=O)N3CCOCC3)cc2NC(=O)/C=C/c2ccc(C)cc2)CC1`, the “hERG current change (%, negative = inhibition) at 1uM” value was -4.67%.
Turning to `CCOC(=O)/C(=C\c1cccc(O)c1)c1nc2sc(C)c(C)c2c(=O)[nH]1`, the “hERG current change (%, negative = inhibition) at 1uM” value is on record as 15.4%.
The same measure for `Cc1ccc(Oc2nc3c(c(=O)n(Cc4ccccc4F)c(=O)n3C)n2C)cc1`: 2.05%; for `Cc1[nH]c(C)c2c(=O)n(-c3ccccc3)ncc12`: 11.1%; for `Cc1ccc(NC(=S)NC(NC(=O)N(C)C)C(Cl)(Cl)Cl)cc1` (centres unmarked): 11.2%.
Take `CC(=O)C1=C(O)C(=O)N(CCCO)C1c1ccccc1` (centres unmarked): the “hERG current change (%, negative = inhibition) at 1uM” value stood at 8.96%.
The same measure for `O=C(NCc1cccs1)C(Cc1ccccc1)n1cccc1` (centres unmarked): 1.19%.
Under `CC(NC(=O)Cc1ccsc1)c1ccc(Cl)cc1Cl` (centres unmarked) stands 21.9%.
The same measure for `COc1ccccc1C(=O)NNC(=O)c1cccc([N+](=O)[O-])c1`: -4.17%; for `NC(=O)CCn1cnc2ccccc21`: 10.9%; for `COc1cccc(NC(=O)c2nnn(CCc3ccccc3)c2N)c1`: -1.39%.
Consider `O=S(=O)(Nc1ccc(Cl)cn1)c1ccc2c(c1)OCCO2`, for which the “hERG current change (%, negative = inhibition) at 1uM” value is -4.51%.
The same measure for `COc1ccc(CN(C)C(=O)COC(=O)c2c(C)nn(-c3ccc(F)cc3)c2Cl)cc1`: -11.9%; for `O=C(N/N=C/c1ccc([N+](=O)[O-])cc1)c1cc(-c2ccc3c(c2)OCO3)n[nH]1`: 10.8%; for `COc1ccccc1-c1noc(-c2ccccc2)n1`: 17.2%.
Under `COc1ccc(CC(=O)Nc2nnc(SCC(=O)NCc3ccco3)s2)cc1OC` stands 13.4%; under `FC(F)(F)c1nc(-c2ccccc2)ncc1-c1nnnn1-c1ccccc1`, 10.9%.
Turning to `COc1ccc(Nc2cc(C)nc3nc(C)nn23)cc1Cl`, the “hERG current change (%, negative = inhibition) at 1uM” value is -31.6%.
The same measure for `O=C(COc1ccc([N+](=O)[O-])cc1)Nc1cccc(C(=O)Nc2ccccc2C(=O)O)c1`: 10.5%; for `CC(=O)N1CCSc2ccc(S(=O)(=O)NCCc3ccc(C)cc3)cc21`: 12.2%.
The same measure for `COc1ccccc1OCCNC(=O)C1CC(=O)N(Cc2ccc(C)cc2)C1` (centres unmarked): 8.09%; for `C=CCO/N=C(\C)c1c(O)c(C)c(-c2ccccc2)n(-c2ccccc2)c1=O`: 4.58%.
With `O=C(Cc1ccccc1)Oc1ccc(N2C(=O)CCC2=O)cc1`, the “hERG current change (%, negative = inhibition) at 1uM” value is 10.5%.
Take `CC1=NN(C(N)=S)C(=O)C1N=Nc1ccc(Cl)cc1Cl` (centres unmarked): the “hERG current change (%, negative = inhibition) at 1uM” value was found to be 11.9%.
Under `COC(=O)CC(N)c1ccc(Br)cc1.Cl` (centres unmarked) stands 10.7%; under `CN(C)c1nc(N(C)C)nc(N(C)C)n1`, 16.6%; under `Fc1cc2nccnc2cc1N1CCSCC1`, 7.78%.
Turning to `O=C1OCC(CO)(CO)N=C1NNc1ccccc1[N+](=O)[O-]`, the “hERG current change (%, negative = inhibition) at 1uM” value came to 7.8%.
Turning to `COc1ccc(C(=O)COC(=O)c2ccc(Cl)nc2)c(OC)c1`, the “hERG current change (%, negative = inhibition) at 1uM” value is listed as 7.9%.
The same measure for `O=C(CCCSc1nc2ccccc2s1)NCc1ccco1`: 9.87%.
Under `COc1ccc(C(=O)Nc2nc3nccc(-c4ccccc4)n3n2)cc1` stands 1.32%.
The same measure for `COc1ccc(OC)c(C2Nc3ccccc3NC3=C2C(=O)CC(C)(C)C3)c1` (centres unmarked): 13.5%; for `Cc1cccc(N(C)C(=O)CCS(=O)(=O)c2cc3c(cc2Cl)NC(=O)CO3)c1`: -15.3%.
Take `C[N+]1(CC(=O)OCCCc2ccccc2)CCOCC1.[I-]`: the “hERG current change (%, negative = inhibition) at 1uM” value is given as 6.97%.
With `COC(=O)CSc1nnc(CSc2nc(C)cc(C)n2)o1`, the “hERG current change (%, negative = inhibition) at 1uM” value came to 14%.
Under `Cc1ccc(OCCC(=O)NNC(=O)c2nn(C)c(=O)c3ccccc23)cc1` stands 0.0771%; under `CC(C)(C)S(=O)c1cccs1` (centres unmarked), 13.3%.
The same measure for `CCCc1nnc(NC(=O)c2cccnc2)s1`: 12.2%; for `COc1ccccc1NC(=S)N/N=C/c1ccc(O)cc1`: 7.59%.
Under `CCC(C)c1ccccc1N1CC(C(=O)NCCCn2nc(C)cc2C)CC1=O` (centres unmarked) stands 10.6%; under `CCOC(=O)c1c(C)n(C)c2ccc(OCC(O)Cn3nc(C)cc3C)cc12` (centres unmarked), 13%.
For `O=C(Nc1cccnc1)/C(N=Nc1cccnc1)=C(\O)c1ccccc1`, the “hERG current change (%, negative = inhibition) at 1uM” value was -7.7%.
Under `COc1cccc(-c2nc(CS(=O)(=O)CC(=O)NC3CCCC3)c(C)o2)c1` stands 10.5%; under `Cc1cccc(N2CCN(C(=O)c3ccc(N4CCCC4=O)cc3)CC2)c1C`, -9.62%.
The same measure for `Cc1nc(N2C(=O)C(=O)/C(=C(/O)c3ccccc3)C2c2ccco2)sc1C` (centres unmarked): 8.66%; for `COc1cccc(/C=N\n2c(C)nnc2C)c1OC`: -0.171%; for `NC(=O)CC(NC(=O)Cc1cccc2ccccc12)c1ccc(NCc2ccc(F)cc2)c([N+](=O)[O-])c1` (centres unmarked): -4.48%.
The same measure for `Cc1ccc(NC(=O)COc2ncnc3ccccc23)cc1S(=O)(=O)N1CCOCC1`: 6.13%; for `Oc1ccc(O)cc1`: 15.8%.
With `O=C(O)c1cc(-c2c[nH]c3ccccc23)nc2ccc3ccccc3c12`, the “hERG current change (%, negative = inhibition) at 1uM” value was -1.42%.
The same measure for `O=C(O)CC1(Cc2nc(-c3cccs3)no2)CCCC1`: 9.46%; for `COc1ccc(CN2CCC(n3nccc3NC(=O)CCOc3ccccc3)CC2)cc1C`: -16.2%.
The same measure for `O=C(c1ccccc1)n1c(=O)c(F)cn(COCCBr)c1=O`: 12.4%; for `CCn1c(CNC(=O)c2ccccc2F)cc2ccccc21`: 13.6%; for `COc1ccc(-c2c(C)nc3c(-c4ccccn4)cnn3c2N)cc1`: 11.1%.
The same measure for `O=C(CCN1CCCC1=O)NC1CCCc2c1cnn2-c1ccc(F)cc1F` (centres unmarked): 1.67%.
With `CSc1cccc(NC(=O)CN2C(=O)COc3ccc(S(=O)(=O)N4CCOCC4)cc32)c1`, the “hERG current change (%, negative = inhibition) at 1uM” value turned out to be 15.4%.
Under `COC(=O)C1=C(C(=O)OC)SC2(S1)C(C(=O)OC)=C(C(=O)OC)SC1=C2c2cc(C)cc(C)c2NC1(C)C` stands 19.8%; under `CN(C)C(Cc1ccccc1)C(=O)c1ccccc1.Cl` (centres unmarked), 7.28%.
Under `CCOC(=O)CSc1nc2ccccc2c(=O)n1-c1ccc(C)cn1` stands 12.3%; under `CC/C(=N\NC(=O)c1ccncc1)C12CC3CC(CC(C3)C1)C2`, 11.3%; under `CC(Sc1nnc(-c2ccc(Cl)cc2Cl)n1Cc1ccccc1)C(=O)Nc1nccs1` (centres unmarked), 5.78%.
Consider `N#Cc1c(-c2c(Cl)cccc2Cl)noc1/C=C/Nc1ccc(C(=O)O)cc1`, for which the “hERG current change (%, negative = inhibition) at 1uM” value is listed as 3.87%.
Under `Cc1ccc(NC(=O)C2CCCC2)c(Br)c1` stands 22.1%; under `Cc1noc(C)c1S(=O)(=O)Nc1ccc(C(=O)Nc2ccc(OC(F)(F)F)cc2)cc1`, 9.96%; under `COc1cccc(OCc2cc(C(=O)N3CCN(C(C)=O)CC3)no2)c1`, 7.61%.
On to `CCCCCCC1CCC(C(=O)NC(CCSC)C(=O)NC(C(=O)OC)C(C)C)CC1` (centres unmarked), for which the “hERG current change (%, negative = inhibition) at 1uM” value amounted to 6.91%.
The same measure for `CCn1c(SC)nnc1-c1ccc(S(=O)(=O)N2CCCCC2)cc1`: -1.45%; for `O=C(O)CCc1nc(-c2ccccc2)no1`: 17%.
The same measure for `Clc1ccc(Cl)c(Oc2ccc(Oc3nc(Cl)ccc3Cl)cc2)n1`: 18.3%; for `CCOc1ccc(CCNC(=O)COC(=O)COc2ccc(C(=O)CC)cc2)cc1OCC`: 13.4%.
The same measure for `CC(/C=C/c1ccccc1)=N/NC(=O)c1cccc(Br)c1`: 12.6%; for `CCN1CCN(Cc2c(O)ccc3c2O/C(=C\C=C\c2ccccc2OC)C3=O)CC1`: -4.56%.
As to `CCc1ccc(NC(=O)N(Cc2cccnc2)Cc2ccco2)cc1`, the “hERG current change (%, negative = inhibition) at 1uM” value is -22.4%.
Regarding `COc1ccc(Oc2coc3cc(OC(=O)N4CCOCC4)ccc3c2=O)cc1`, the “hERG current change (%, negative = inhibition) at 1uM” value is given as -11.9%.
`CN(C)S(=O)(=O)c1cccc(NC(=O)COC(=O)CNC(=O)c2ccccc2F)c1`: the “hERG current change (%, negative = inhibition) at 1uM” value came to 4.65%.
With `CC(Oc1cccc(Cl)c1)C(=O)Nc1ccc(S(=O)(=O)NC2=NCCCCC2)cc1` (centres unmarked), the “hERG current change (%, negative = inhibition) at 1uM” value stood at 0.377%.
The same measure for `Cc1ccc(OCC(=O)NC(C)c2ccccc2)c([N+](=O)[O-])n1` (centres unmarked): 9.95%; for `COCC(=O)N1CCC(Oc2ccc(C(=O)NCCCn3cccn3)cc2)CC1`: 10.6%.
The same measure for `C=C1C(C(=O)Nc2ccccc2)C1C(=O)Nc1ccccc1` (centres unmarked): -4.78%.
Regarding `COCCn1c(SCC(=O)Nc2ccc3[nH]c(=O)[nH]c3c2)nc2ccccc2c1=O`, the “hERG current change (%, negative = inhibition) at 1uM” value came to 10.7%.
The same measure for `COc1cc(C(=O)N[C@@H](C)C(=O)NCc2ccco2)cc(OC)c1OC`: 16.3%; for `COc1ccc(OC)c(S(=O)(=O)N2CCCc3ccccc32)c1`: 3.74%; for `O=C(O)COc1ccccc1/C=N/NC(=O)CSc1nc2ccccc2n1Cc1ccccc1Cl`: 6.39%.
The same measure for `Clc1ccc2c(N3CCNCC3)ccnc2c1`: -15.4%.
The same measure for `COc1ccc(CCNC(=S)NC(=O)c2cccc([N+](=O)[O-])c2)cc1OC`: 2.02%; for `O=C(c1ccc(N2C(=O)CCC2=O)cc1)N1CCOCC1`: 11.4%.
Consider `CCOc1ccc(N(C(=O)c2snc(C(N)=O)c2N)C(CC)C(=O)NC2CCCC2)cc1` (centres unmarked), for which the “hERG current change (%, negative = inhibition) at 1uM” value was determined as 13.7%.
The same measure for `Cc1ccc2c(C)c(C(=O)N(Cc3ccncc3)CC3CCCO3)oc2c1C` (centres unmarked): -14.2%.
